# Assay results from PubChem BioAssay AID1347120 (National Center for Advancing Translational Sciences (NCATS), 2019).
# Hit rate of the full screen: of about 390,000 compounds, about 930 (0.24%) were called active. Inconclusive means that the source gave no clear call. Such entries were picked first, then a sample of the others. The call rests on the fitted dose curve; in most records, active means well fitted activation curve with a large enough effect; inconclusive means small, poorly fitted or top-dose-only effect; inactive means no such curve, though single readings can be large or run the other way. Potencies of inconclusive entries are doubtful fits and often do not repeat.
# Experiment: qHTS for Suppressors of FUS Proteinopathy: Primary screen using FUS-linked yeast assay; further: nearly all actives have a fitted effect of over 55% in size;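 on growth rescue (activation): plate controls were DMSO vehicle for no effect and reference control for full effect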
# Conditions: S. cerevisiae FUS-expressing, OD600, 24 h; Potency: growth rescue; growth rescue (activation): at 76.6 µM (top of the series)
# In short: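 Absorbance at 600 nm, taken 24hr after compound addition, measured rescue of FUS-yeast growth at 30C. Induction used 2% galactose with seeding at OD 0.005. Controls: CP55940 from 92uM final, DMSO only.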
# Potency means the concentration at half of the fitted maximal effect; tags describe the fitted curve by direction and shape.
SMILES,Potency,growth rescue (activation)
CC(=O)N1CCc2cc(S(=O)(=O)NC3CCN(C(=O)OCc4ccccc4)CC3)ccc21,"inconclusive: 31.6 µM [activator, partial curve, poor fit]",
CCOC(=O)[C@]12CCCCC/C=C\1N(Cc1ccc(OC)cc1)C(=O)[C@H]2CC(=O)NCc1ccc(OC)c(OC)c1,"inconclusive: 22.4 µM [activator, partial curve]",
O=C(CCSc1nc(-c2ccccc2)c(-c2ccccc2)o1)N1CCCCC1,"inconclusive: 31.6 µM [activator, single point]",
O=C1C=C(c2cccc(Cl)c2O)C[C@@H](c2ccc(Cl)cc2)C1,"inconclusive: 44.7 µM [activator, partial curve, poor fit]",
CC(=O)N1CCc2c(sc3c2c(=O)n(Cc2ccccc2)c(=O)n3Cc2cc(C)ccc2C)C1,,inactive: -20%
O=C(Oc1ccc(C(=S)N2CCOCC2)cc1)c1cccc([N+](=O)[O-])c1,"inconclusive: 0.891 µM [activator, full curve, poor fit]",
CC(C)N=C(N)N=C(N)Nc1ccc(Cl)cc1,,inactive: -36.2%
Cc1ccc(S(=O)(=O)c2cn(CC(=O)Nc3cccc(C)c3)c3cc4c(cc3c2=O)OCO4)cc1,"inconclusive: 22.4 µM [activator, partial curve, poor fit]",
CCOc1cc(NC(=S)NCC2CCCO2)c(OCC)cc1NC(=O)c1cccc(F)c1 (configuration not stated),"inconclusive: 25.1 µM [activator, partial curve, poor fit]",
CCc1nc2c(OCCc3cccc(OC)c3)cccn2c1N(C)C(=O)c1cccs1,"inconclusive: 25.1 µM [activator, single point]",
CC[C@@]12C(=O)N(c3cccc(Cl)c3)C(=O)N1[C@H](c1cccc(C)c1)[C@@H]1C(=O)N(Cc3ccccc3)C(=O)[C@@H]12,"inconclusive: 25.1 µM [activator, partial curve]",
Cc1cccc(NC(=O)c2ccc(F)c(S(=O)(=O)N3CCC4(CC3)OCCO4)c2)c1,"inconclusive: 7.94 µM [activator, partial curve, poor fit]",
Cc1ccc(CCNC(=O)c2ccc3c(c2)N(Cc2ccccc2)C(=O)c2ccccc2S3=O)cc1 (configuration not stated),,inactive: -14.7%
COc1ccc(N2CCN(c3ncnc4onc(-c5ccc(F)cc5)c34)CC2)cc1,,inactive: -28.5%
COc1ccc(-c2ccc(CN3C(C)C(=O)N(Cc4cn(Cc5ccco5)nn4)CCS3(=O)=O)cc2)cc1 (configuration not stated),"inconclusive: 50.1 µM [activator, single point]",
COc1ccc(N(CC(=O)NCc2ccc(Cl)cc2)S(=O)(=O)c2ccccc2[N+](=O)[O-])c(OC)c1,"inconclusive: 22.4 µM [activator, partial curve, poor fit]",
COCOCCn1cc(CN2CCS(=O)(=O)N(Cc3ccc(-c4ccc(OC)cc4)cc3)C(CC(C)C)C2=O)nn1 (configuration not stated),"inconclusive: 15.8 µM [activator, partial curve, poor fit]",
COc1ccc(-c2oc3ccc(N4CCOCC4)cc3c2C#Cc2ccc(N)cc2)cc1,"inconclusive: 50.1 µM [activator, single point]",
COc1cc(OC)cc(C(=O)Nc2ccc3nc(Nc4cccc(C(F)(F)F)c4)cc(C)c3c2)c1,"inconclusive: 35.5 µM [activator, single point]",
C#CCCC(=O)O[C@H]1CCC[C@@]2(C(=O)N(Cc3ccccc3)c3ccccc32)[C@H]1NC(=O)CCc1ccccc1,,inactive: 42.2%
Cc1ccc(C)c(N2CCN(CCCNC(=O)Cn3cc4c(n3)CCCCC4)CC2)c1,"inconclusive: 25.1 µM [activator, partial curve]",

SMILES,Potency,growth rescue (activation)
COc1cccc(CN(Cc2cccnc2)S(=O)(=O)c2ccc(-n3cnnn3)c(C)c2)c1,"inconclusive: 22.4 µM [activator, partial curve, poor fit]",
O=C(CSc1nccc(-c2cccs2)n1)Nc1ccc(F)c(Cl)c1,,inactive: 13.3%
COCC(C)NC(=O)CCSc1nc(-c2ccc(OC)cc2)cc(C(F)(F)F)n1 (configuration not stated),"inconclusive: 15.8 µM [activator, partial curve]",
COc1ccc(/C=N/Nc2nc(Nc3ccccc3)nc(N3CCCC3)n2)cc1,"inconclusive: 44.7 µM [activator, single point]",
COc1ccccc1N1CCN(C(=O)CSc2n[nH]c(-c3ccccc3Cl)n2)CC1,,inactive: 18.9%
O=C(N/N=C/c1cn(-c2cccs2)nc1-c1ccccc1)c1ccccc1Br,"inconclusive: 7.94 µM [activator, full curve]",
CCN(Cc1ccccc1)C(=O)c1nn(-c2ccc(OC)cc2)c(=O)c2c1c1ccccc1n2C,"inconclusive: 20 µM [activator, partial curve, poor fit]",
O=C(COC(=O)c1ccc(O)cc1O)N=c1sccn1Cc1ccccc1Cl,"inconclusive: 28.2 µM [activator, partial curve, poor fit]",
CC(=O)N1CCN(c2ccc(NCc3ccc4c(c3)OCO4)cc2)CC1,"inconclusive: 22.4 µM [activator, partial curve, poor fit]",
CN(C)CCCN(C(=O)c1ccc(S(=O)(=O)N(C)C2CCCCC2)cc1)c1nc2ccc(F)cc2s1,"inconclusive: 14.1 µM [activator, partial curve]",
CCOC(=O)Cn1c(=O)n(CC2CCCO2)c2nc(-c3ccc(C(C)C)cc3)nc(C(N)=O)c21 (configuration not stated),"inconclusive: 4.47 µM [activator, single point]",
O=C1CC(c2ccc3c(c2)OCO3)N=C2N(Cc3ccc4c(c3)OCO4)C/C(=C/c3ccccc3)N12 (configuration not stated),,inactive: 21.1%
COc1ccc(Br)cc1-c1noc(-c2ccccc2)n1,"inconclusive: 0.891 µM [activator, full curve, poor fit]",
O=C(CCCCCN1C(=O)C2C3C=CC(C3)C2C1=O)Nc1ccc2ncccc2c1 (configuration not stated),,inactive: 10.8%
COc1ccc(-n2c(=O)c3ccccc3n(Cc3cccc(C)c3)c2=O)cc1,,inactive: 6.27%
COc1cccc(Cn2c(CNS(=O)(=O)c3ccc(C(C)(C)C)cc3)nc3cccnc32)c1,"inconclusive: 35.5 µM [activator, single point]",
O=C1c2ccccc2C(=O)N1CCCc1nc2ccccc2c(=O)n1CCCn1ccnc1,,inactive: 3.73%
COc1ccccc1N1CCN(C(=O)c2cc(S(=O)(=O)N3CCC(C)CC3)cn2C)CC1,"inconclusive: 50.1 µM [activator, single point]",
Cc1ccc(NC(=S)NNC(=O)CSc2nc3ccccc3c(=O)n2-c2ccc(Cl)cc2)cc1,,inactive: 15.4%
COc1ccc(OC)c(NC(=O)c2cc(S(=O)(=O)NCCc3ccc(Cl)cc3)ccc2F)c1,,inactive: 36.2%
Cc1n[nH]c(C)c1N1C(=O)c2cccc3cc(Br)cc(c23)C1=O,,inactive: 2.27%

SMILES,Potency,growth rescue (activation)
O=C(CCCSc1ccccc1)Nc1nc(-c2ccco2)c(-c2ccco2)s1,,inactive: 28.7%
O=C(CSc1nnc(CCc2ccccc2)n1-c1ccc(Cl)cc1)c1ccccc1,"inconclusive: 28.2 µM [activator, single point]",
O=C(CCNC(=O)c1ccco1)Nc1nc(-c2ccccc2)cs1,"inconclusive: 28.2 µM [activator, single point]",
COc1cc(CCC(=O)Nc2ccc(Br)c(C(F)(F)F)c2)cc(OC)c1OC,,inactive: 14.9%
COc1cc(NC(=O)COC(=O)CSc2ccc3ccccc3c2)c(C)cc1[N+](=O)[O-],"inconclusive: 2.82 µM [activator, full curve]",
COc1ccc2c(c1)C(CC(C)=O)N(c1ccc(-c3cnc(OC)nc3)cc1)C(c1ccsc1)=C2 (configuration not stated),"inconclusive: 50.1 µM [activator, single point]",
CCOc1ccc(CC(=O)Nc2sc(Cc3ccccc3)c(C)c2C(N)=O)cc1OCC,active: 14.1 µM,
CCOC(=O)c1scc(-c2ccc(C)cc2)c1S(=O)(=O)N1CCN(c2ccccc2F)CC1,,inactive: 13.9%
O=C(Cn1ncc2c3ccccc3n(Cc3ccccc3)c2c1=O)N1CCN(c2ncccn2)CC1,"inconclusive: 44.7 µM [activator, single point]",
Cc1cccc(NC(=O)C(=O)NCC(c2cccnc2)N2CCc3ccccc3C2)c1C (configuration not stated),,inactive: -24.7%
Cc1ccc(Cl)cc1N1CCN(C(=O)CCNS(=O)(=O)c2ccc3c(c2)CCN3C(=O)C2CC2)CC1,"inconclusive: 31.6 µM [activator, partial curve, poor fit]",
COc1ccc(-c2nnc(SCC(=O)NC3CCCC3)nc2-c2ccc(OC)c(OC)c2)cc1OC,"inconclusive: 44.7 µM [activator, single point]",
O=C(Nc1ccncc1)C1CCN(S(=O)(=O)c2cccs2)CC1,,inactive: 0.651%
O=C(N/N=C/c1ccc(F)cc1)c1cc(-c2ccco2)nc2ccccc12,"inconclusive: 17.8 µM [activator, partial curve, poor fit]",
CCOC(=O)/C(C(N)=NCC(C)C)=C(/O)c1ccccc1,"inconclusive: 12.6 µM [activator, partial curve, poor fit]",
CCn1cc(C(=O)NCCCN2CCCC(C)C2)c(=O)c2cc(S(=O)(=O)N(C)C3CCCCC3)ccc21 (configuration not stated),"inconclusive: 3.16 µM [activator, full curve]",
O=C(c1ccc(Br)cn1)N1CCC(Oc2cccnc2)CC1,,inactive: -19.5%
Oc1ccc(/C=N/NC(=S)Nc2cccnc2)cc1,,inactive: -5.45%
Nc1[nH]c(C(=O)c2ccccc2)c(-c2ccccn2)c1C(=O)c1c[nH]c2ccc(Br)cc12,"inconclusive: 15.8 µM [activator, partial curve]",
COC(=O)C1CCN(C(=O)c2sc3nc(-c4ccc(F)cc4)cn3c2C)CC1,"inconclusive: 2.51 µM [activator, full curve]",
